Laboratory results: PubChem BioAssay AID588342 (National Center for Advancing Translational Sciences (NCATS), 2011)
The campaign covered roughly 360,000 compounds. About 25,000 (6.9%) were called active. Inconclusive means that the source gave no clear call. Such entries were picked first, then a sample of the others. Calls follow the shape of the dose curve; as a rule, active = well fitted inhibition curve with a large enough effect; inconclusive = small, poorly fitted or top-dose-only effect; inactive = flat fitted curve, though single readings scatter. A potency beside an inconclusive call is a rough fit, not a confirmed value.

Each compound was assayed against Luciferin 4-monooxygenase (Photinus pyralis) (UniProt P08659) (assay: qHTS profiling assay for firefly luciferase inhibitor/activator using purifed enzyme and Km concentrations of substrates (counterscreen for miR-21 project)). Details: purified FLuc, luminescence inhibition; series mostly up to 57.5 µM; activity change, negative = inhibition: at the top concentration.
Summary of the method: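 Purified P. pyralis luciferase (10nM final) with 10uM D-luciferin and 10uM ATP (Km levels) in 50mM Tris acetate pH 7.5, 10mM Mg acetate, 0.01% Tween-20, 0.05% BSA; qHTS 6-point titration, ~60 µM downward; luminescence read.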
Also: nearly all actives have a fitted effect of over 55% in size.
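For activity change, negative = inhibition in this document: plate controls were vehicle for no effect and reference inhibitor for full effect.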
Potency is read from the fitted curve at half-maximal effect; tags tell the direction and shape of the fitted curve.

UniProt P08659, sequence (P08659 whole entry, looked up): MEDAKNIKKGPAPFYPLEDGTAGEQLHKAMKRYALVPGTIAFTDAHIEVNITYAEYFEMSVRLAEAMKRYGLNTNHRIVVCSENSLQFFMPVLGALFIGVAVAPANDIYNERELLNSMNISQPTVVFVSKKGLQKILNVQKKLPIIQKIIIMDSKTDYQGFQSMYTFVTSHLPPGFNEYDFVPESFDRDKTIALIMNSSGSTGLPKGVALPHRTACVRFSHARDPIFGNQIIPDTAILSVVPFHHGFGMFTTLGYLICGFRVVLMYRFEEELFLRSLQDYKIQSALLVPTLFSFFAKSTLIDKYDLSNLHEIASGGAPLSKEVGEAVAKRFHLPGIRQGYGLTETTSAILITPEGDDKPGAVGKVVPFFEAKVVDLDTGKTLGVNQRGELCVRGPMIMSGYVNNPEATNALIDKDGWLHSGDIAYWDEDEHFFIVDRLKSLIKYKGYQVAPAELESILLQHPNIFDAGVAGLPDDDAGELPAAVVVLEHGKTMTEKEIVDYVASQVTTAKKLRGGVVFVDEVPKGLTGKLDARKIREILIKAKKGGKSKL

Compound	Potency	activity change, negative = inhibition
COc1ccccc1C(=O)Nc1cccc(N(C)S(C)(=O)=O)c1	inconclusive: 37.9 µM [inhibitor, partial curve, poor fit]	–
Cc1ccc(C)c(N2CCN(C(=O)CCS(=O)(=O)c3cc(Br)cc4c3N(C(=O)C3CC3)CC4)CC2)c1	inconclusive: 9.53 µM [inhibitor, partial curve, poor fit]	–
CCOC(=O)c1cc2cc(OCc3ccccc3)ccc2nc1C	inconclusive: 37.9 µM [inhibitor, partial curve, poor fit]	–
CCc1ccc(N2CC(C(=O)OCC(=O)c3c(N)n(CC(C)C)c(=O)n(C)c3=O)CC2=O)cc1 (stereo unspecified)	–	inactive: 6.64%
C/C(=N\NC(=O)Cc1c(Cl)cccc1Cl)c1cccnc1	–	inactive: -0.966%
CC(=O)Oc1ccc(-c2cccc(C(=O)O)c2)cc1	active: 3.79 µM	–
CCOC(=O)C/C(C)=N\Nc1nc(-c2ccccc2)cs1	inconclusive: 26.9 µM [inhibitor, single point]	–
COc1cccc(/C=N/NC(=O)CNC(=O)c2cccnc2)c1O	–	inactive: -0.697%
NC(=O)C1CCN(C(=O)COCc2cc(-c3ccc4c(c3)OCO4)on2)CC1	inconclusive: 26.9 µM [inhibitor, single point]	–
COc1cccc(NC(=O)c2sc3nc(C)c(C(=O)Nc4ccc(C)cc4C)c(-c4ccco4)c3c2N)c1	–	inactive: -2.88%
COc1ccc(OCC(=O)Nc2cccc(C(=O)OCc3cc(=O)n4nc(C)sc4n3)c2)cc1	inconclusive: 19 µM [inhibitor, partial curve]	–
COc1ccc(Nc2cc(C)nc(N3CCOCC3)n2)cc1	inconclusive: 37.9 µM [inhibitor, partial curve, poor fit]	–
CN(C)C(=O)c1ccc(Nc2nc(-c3cccs3)nc3ccccc23)cc1	inconclusive: 26.9 µM [inhibitor, single point]	–
COCc1cc(C)nc2sc(C(=O)Nc3ccc(C(C)=O)cc3)c(N)c12	–	inactive: -14%
c1ccc(CN2CCN(c3nc(NCc4ccco4)c4ccccc4n3)CC2)cc1	inconclusive: 26.9 µM [inhibitor, partial curve, poor fit]	–
CCC(=O)Nc1ccc(C(=O)Nc2cccnc2)cc1	inconclusive: 21.3 µM [inhibitor, partial curve, poor fit]	–
Cc1ccc(Oc2ncnc(N)c2[N+](=O)[O-])cc1C	–	inactive: 0.776%
CCCn1c2ccccc2c2cnn(CC(=O)N(CC)c3cc(C)ccc3C)c(=O)c21	inconclusive: 10.7 µM [inhibitor, partial curve, poor fit]	–
Cc1ccc(C2C=C(c3ccccc3)Nc3nc(NS(=O)(=O)c4ccc(C)cc4)nn32)cc1 (stereo unspecified)	inconclusive: 10.7 µM [inhibitor, partial curve]	–
O=C(Nc1nc(-c2ccccc2)cs1)c1ccc(N2CCOCC2)c([N+](=O)[O-])c1	inconclusive: 21.3 µM [inhibitor, single point]	–
COC(=O)C1=C(O)/C(=C\c2sccc2C)N=C1C	inconclusive: 16.9 µM [inhibitor, single point]	–
CCOc1ccc(N2CC(C(=O)NCCC3=CCCCC3)CC2=O)cc1 (stereo unspecified)	–	inactive: 1.26%
Fc1ccccc1NC(=S)Nc1ccc(Br)cc1	inconclusive: 19 µM [inhibitor, partial curve, poor fit]	–
CCOC(=O)c1ccc(NC(=O)C(=O)NCC2CCCO2)cc1 (stereo unspecified)	inconclusive: 21.3 µM [inhibitor, single point]	–

Compound	Potency	activity change, negative = inhibition
COc1ccc(-n2ncc(C(=O)N3CCN(C4CCCCC4)CC3)c2C2CCN(C(=O)OC(C)(C)C)CC2)cc1	–	inactive: -5.97%
C=CCc1ccccc1OCc1nc2ccc(C)cc2[nH]1	inconclusive: 37.9 µM [inhibitor, partial curve, poor fit]	–
COC(=O)c1cccc(CSC(=S)N2CCCC2)c1	inconclusive: 23.9 µM [inhibitor, partial curve, poor fit]	–
CC(NC(=O)/C(=C\c1ccco1)NC(=O)c1ccccc1Br)C(=O)O (stereo unspecified)	–	inactive: 6.56%
CN(C)c1ccc(C2C3CCCc4ccccc4C3=NN2C)cc1 (stereo unspecified)	active: 19 µM	–
COc1cc2c(cc1NC(=O)COCC(=O)O)oc1ccccc12	active: 16.9 µM	–
COc1cc(C(=O)Nc2ccc3oc(-c4cccnc4)nc3c2)cc(OC)c1OC	–	inactive: 3.29%
Cc1cc(N/N=C/c2ccccc2)nc(N2CCOCC2)n1	active: 12 µM	–
CCCC(=O)OCC(=O)c1[nH]c(C)c(C(C)=O)c1C	inconclusive: 19 µM [inhibitor, partial curve]	–
CC(=O)c1ccc(NC(=O)CSc2nnc(-c3ccco3)c(-c3ccco3)n2)cc1	inconclusive: 19 µM [inhibitor, partial curve]	–
CCNS(=O)(=O)c1ccc(NC(=O)Nc2ccc3c(c2)OCO3)cc1	inconclusive: 21.3 µM [inhibitor, partial curve, poor fit]	–
Cc1c(C(=O)Nc2nccs2)oc2ccc(F)cc12	inconclusive: 1.07 µM [inhibitor, full curve]	–
COc1cc(O)oc1C=Nc1ccc(C(F)(F)F)cc1	inconclusive: 15.1 µM [inhibitor, partial curve, poor fit]	–
CCOC(=O)Cc1c(C)nc2cc(-c3ccc(C(C)(C)C)cc3)nn2c1C	inconclusive: 16.9 µM [inhibitor, partial curve]	–
Cc1ccc2nc(Cl)c(C#N)cc2c1	inconclusive: 26.9 µM [inhibitor, partial curve, poor fit]	–
COc1cccc(NC(=O)CN(C)C(=O)c2cc(-c3ccc(F)cc3)nc3ccccc23)c1	inconclusive: 26.9 µM [inhibitor, single point]	–
N/C(=N\C(=S)Nc1ccccc1)c1ccccc1	active: 10.7 µM	–
COCCNc1c(-c2ccc(O)cc2)nc2ccc(Cl)cn12	inconclusive: 3.79 µM [inhibitor, partial curve, poor fit]	–
O=C(NCC1CCCO1)c1ccc(S(=O)(=O)Nc2ccccc2F)cc1 (stereo unspecified)	–	inactive: -0.925%
CN(c1ccc(C(=O)N2CCc3ccccc3C2)cc1)S(C)(=O)=O	inconclusive: 33.8 µM [inhibitor, single point]	–
CC(=O)c1ccc(NC(=O)/C(=C\c2ccccc2)NC(=O)c2ccco2)cc1	inconclusive: 21.3 µM [inhibitor, partial curve, poor fit]	–
Cn1c(N)c(C(=O)c2cc(-c3ccccc3)nc3ccccc23)c(=O)n(C)c1=O	active: 5.36 µM	–
Cc1ccc(Nc2ncnc3sc(C)c(C)c23)cc1C	inconclusive: 26.9 µM [inhibitor, single point]	–
C=CCN(c1ccccc1)S(=O)(=O)c1cccc(C(=O)Nc2cc(C)ccn2)c1	inconclusive: 21.3 µM [inhibitor, single point]	–

Compound	Potency	activity change, negative = inhibition
COC(=O)c1sc(N2C(=O)c3oc4ccc(C)cc4c(=O)c3C2c2ccc(O)c(OC)c2)nc1C (stereo unspecified)	–	inactive: -6.4%
Cc1ccc(-c2nc3ccccc3[nH]2)cc1NC(=O)c1ccco1	active: 15.1 µM	–
COc1ccc(CCNc2nc(SCc3ccccc3F)nc3ccccc23)cc1OC	–	inactive: 0.545%
Cc1cc(Oc2nnnn2-c2ccccc2)ccc1Cl	inconclusive: 21.3 µM [inhibitor, partial curve]	–
Cc1ccccc1Nc1nc(NCc2ccco2)c2ccccc2n1	inconclusive: 26.9 µM [inhibitor, partial curve, poor fit]	–
O=C(CCSc1ccccc1)NC1CCCCCC1	active: 10.7 µM	–
S=c1[nH]nc(CNc2cccc(Cl)c2)o1	inconclusive: 37.9 µM [inhibitor, partial curve, poor fit]	–
Cc1ccc(C(=O)CSc2nnnn2C(C)C)c(C)c1	active: 0.675 µM	–
O=[N+]([O-])c1ccccc1N/N=C1\CC2CC=CC12 (stereo unspecified)	inconclusive: 30.1 µM [inhibitor, single point]	–
COc1ccccc1CCN1CCCC(CN(C)C(=O)c2ccoc2)C1 (stereo unspecified)	–	inactive: 1.71%
COC(Cn1c2c(c3cc(C)ccc31)CCCC2NCc1ccccc1)OC (stereo unspecified)	–	inactive: 2.64%
COc1cccc(NC(=O)Nc2ccc3snnc3c2)c1	active: 16.9 µM	–
CCOC(=O)c1ccc(NC(=O)C2CCCO2)cc1 (stereo unspecified)	inconclusive: 15.1 µM [inhibitor, partial curve]	–
CCOC(=O)N1CCN(CC(=O)c2ccc(O)c(C)c2O)CC1	inconclusive: 30.1 µM [inhibitor, single point]	–
COC(=O)C(C)n1cnc2c(cnn2-c2ccc(Cl)cc2)c1=O (stereo unspecified)	inconclusive: 16.9 µM [inhibitor, partial curve]	–
COc1ccc(NS(=O)(=O)c2cc(NC(=O)c3ccncc3)ccc2N2CCOCC2)cc1	–	inactive: 3.34%
Cc1ccc(CNC(=O)CSc2ccc(-c3ccccn3)nn2)cc1	–	inactive: -12%
COc1cc(NC(=O)C(CC(C)C)N2Cc3ccccc3C2=O)cc(OC)c1 (stereo unspecified)	–	inactive: -3.98%
COc1ccc(NC(=O)CN(C)C(=O)c2ccc(OCc3ccccc3)c(OC)c2)cc1	–	inactive: 3.67%
Cc1ccc(C2CCN(C(=S)NC(C)(C)C)C2)cc1 (stereo unspecified)	inconclusive: 21.3 µM [inhibitor, partial curve, poor fit]	–
O=[n+]1c2c(n([O-])c3cc(F)c(N4CCCC4)cc31)CCCC2	inconclusive: 23.9 µM [inhibitor, partial curve, poor fit]	–
COc1cccc(C(=O)OCc2ccccc2C#N)c1O	inconclusive: 26.9 µM [inhibitor, single point]	–
COc1cccc(C2CC(=O)N3CN(c4ccccc4F)CSC3=C2C#N)c1 (stereo unspecified)	inconclusive: 26.9 µM [inhibitor, partial curve, poor fit]	–
